Results reported in ChEMBL document CHEMBL4888484, “Replenishing the malaria drug discovery pipeline: Screening and hit evaluation of the MMV Hit Generation Library 1 (HGL1) against asexual blood stage Plasmodium falciparum ,using a nano luciferase reporter read-out” (2022).
In all, about 150,000 compounds went through this assay and about 540 (0.36%) showed an effect of 50% or more. This is one part of the list.

tested on: Plasmodium falciparum; assay: Primary screen in NF54 nanoGlo assay, in single point, at 2uM, 72h; a lower Z score goes with more inhibition; format: functional, Erythrocyte; conditions: timepoint 72 hour

SMILES | % Inhibition [%] | Z score
CCc1ccnc(CNC(=O)[C@@](C)(O)CCc2ccccc2)c1 | -4 | 0.73
O=S(=O)(NCc1nccnc1-c1ccoc1)c1ccc(-n2cccn2)cc1 | -1 | 0.17
CCCn1ncc(CN2C[C@H](O)[C@@H](N3CCOCC3)C2)c1C | -3 | 0.45
O=C(NC1CCC[C@H]1OCc1ccccc1)c1cncn1-c1cccc(-c2ccccc2C(F)(F)F)c1 (stereo partly drawn) | 20 | -2.48
COC(=O)c1cc(NC(=O)[C@H](C)NC(=O)CC2CCCCC2)cc2[nH]ccc12 | -7 | 0.64
C=C(C)COc1ccc(C(=O)N2C[C@H](N(C)C)C[C@H]2C(=O)O)cc1 | -11 | 1.47
CCN1CC2(CCN(Cc3[nH]c4ccccc4c3C)CC2)OC1=O | 1 | -0.14
COc1ccc(C(=O)N2CCCC2)c(OC2CCN(Cc3cnn(C)c3C)CC2)c1 | -1 | 0.26
O=C([C@H]1CCc2ncc(-c3ccc(F)cc3)n2C1)N1CCCC1 | -15 | 2.82
CC(C)(C(=O)N[C@H]1C[C@@H](C(=O)O)C1)c1ccc(Cl)cc1F | -1 | 0.06
COc1cnc(NC(=O)c2cc[nH]n2)s1 | -6 | 0.66
COCCN(CC(=O)N(Cc1ccccc1)Cc1ccc(C)o1)C(=O)c1ccc(F)cc1 | 5 | -0.79
O=C(NC1CCOCC1)N1CC(OC[C@H]2CCOC2)C1 | 7 | -0.97
COC(=O)c1ccc(N2CCC(C(=O)Nc3nncs3)CC2)nn1 | -12 | 1.24
CCCc1cc(C(=O)N[C@@H](Cn2ccnc2)C(C)C)[nH]n1 | 3 | -0.39
COc1ccc(Cl)cc1NC(=O)N1CCC[C@H](Cn2cnc3cccnc32)C1 | -18 | 2.68
CS(=O)(=O)C1CCCCC1NCCc1cc2ccccc2o1 (stereo not drawn) | -4 | 0.48
O=C(Nc1ccc(-n2cncn2)nc1)N1CCC[C@@H]1CO | 0 | -0.01
N#Cc1nccnc1O[C@H]1CCCN(C(=O)NCc2ccc3c(c2)OCO3)C1 | -1 | 0.1
CNC[C@H](C)C(=O)NC1CCC(C(C)C)CC1 (stereo partly drawn) | -8 | 0.89
COc1cccc(C(=O)N2CCC3(CC2)OC[C@@H](C(=O)NCc2ccncc2)N3C(=O)c2cccc(C)c2)c1 | -11 | 1.96

SMILES | % Inhibition [%] | Z score
CS(=O)(=O)Cc1noc(CN2CCCCCc3ccccc32)n1 | -5 | 0.96
Cc1cc(CNC(=O)CC2(O)CCCCC2)ccn1 | -3 | 0.42
Cc1cc(C)c2[nH]c(CN3CCNC(=O)[C@@H]3C)cc(=O)c2c1 | -7 | 0.97
COCc1nc(C(C)C)nc(N2CCN(C(=O)c3ccc(F)cc3)CC2)c1Cc1ccccc1F | 11 | -1.41
O=C(NC[C@H]1CN(C2CC2)CCO1)c1cccc(-n2cnnn2)c1 | -14 | 1.68
CC(C)[C@H]1CN(c2cc(C3CC3)ncn2)C[C@@H]1NC(=O)C1CCOCC1 | 0 | -0.08
C[C@H]1C(=O)NCCCN1Cc1csc(-c2ccoc2)n1 | -10 | 1.5
CO[C@H]1COC[C@@H]1Nc1nc(N)nc(C)c1Cl | 10 | -1.37
COCCN1[C@@H]2CN(Cc3nccs3)C[C@@H]2OCCS1(=O)=O | 7 | -0.85
COC1(c2nc(Cc3noc(C)n3)no2)CCCCC1 | 0 | 0.02
COc1ccc(S(=O)(=O)N2CC(Oc3nccs3)C2)cc1C | -10 | 1.5
Cn1nc(-c2cccs2)cc1CNC(=O)c1cccnc1 | -15 | 1.91
Cc1c(S(=O)(=O)N(C)[C@@H](C)c2cccnc2)cnn1C | -2 | 0.35
Cc1nnc(-n2nc(C(F)(F)F)cc2C)[nH]1 | -2 | 0.27
CC1CN(C(=O)CN(CCC(F)(F)F)C2CCC2)CC(C)O1 (stereo not drawn) | -8 | 1.36
O=S(=O)(CCC1CCCO1)N1CCCC1c1ccncc1 (stereo not drawn) | -16 | 1.99
O=C(NC1(C(=O)NC(c2ccccc2)c2ccccc2)CCCC1)c1ccccn1 | 5 | -0.59
O=C(NCCc1cccnc1)c1cn2ccnc(-c3ccccc3)c2n1 | 35 | -3.96
Cc1cc(C)c(S(=O)(=O)N2C[C@H]3OCCN(C)[C@H]3C2)s1 | -8 | 1.54
COc1ccc(-c2ncc3c(=O)n(CC(=O)Nc4cc(OC)cc(OC)c4)cnc3n2)cc1 | -16 | 1.53
c1ccc2c(-c3cn(C[C@H]4CNCCO4)nn3)ccnc2c1 | -5 | 0.42

SMILES | % Inhibition [%] | Z score
CCc1cccnc1-c1noc([C@@H]2CN(C)C(=O)CN2)n1 | -2 | 0.34
CCN(CC1CC1)c1nnc(-c2ccccn2)n1C[C@H]1CCCCO1 | -9 | 1.31
CCCN(CCc1c[nH]c2ccc(NC(=O)c3cc(F)cc(F)c3)cc12)CC1CC1 | 6 | -0.81
CCc1nc(NC2CCC(NC(=O)c3ccccc3F)CC2)c2c(C)nn(-c3ccccc3C)c2n1 (stereo not drawn) | -11 | 1.29
O=C(NCc1cccs1)[C@H]1CN(C(=O)c2ccncc2)CC12CCCCC2 | 27 | -3.03
COc1cccc(CNC(=O)c2ccc(S(=O)(=O)N3CC(C)CC(C)C3)cc2)c1 (stereo not drawn) | -7 | 1.05
O[C@H]1[C@H](NCc2ccccc2)[C@H]2CO[C@H](O2)[C@@H]1N1CCC(Cc2ccccc2)CC1 | -8 | 1.22
COc1ccccc1-c1noc(-c2oc(C)nc2C)n1 | 13 | -1.5
CCOCc1nnc(NCC2(C)CCOCC2)o1 | -2 | 0.26
CN(Cc1cc(C[C@@H]2C[C@H](NC3CCOCC3)C2(C)C)no1)c1ccccc1 | -13 | 1.69
COc1ccc(-c2nc(C)cc(C)c2CNS(=O)(=O)c2cccs2)cc1 | 1 | -0.14
CCOC(=O)N1CC(c2ccccc2)C(c2ncon2)C1 (stereo not drawn) | 0 | 0.05
O=S1(=O)CC[C@H](n2nc(-c3ccco3)cc2NS(=O)(=O)c2ccc(F)cc2)C1 | -3 | 0.53
CN(Cc1ccnc(N(C)C)n1)C[C@H]1CCCCO1 | -1 | 0.12
Cc1n[nH]c(C)c1CNCCc1cn2c(n1)CCCC2 | -5 | 0.53
O=C(Cn1nnc2ccccc21)N1CCOC2CCCCC21 (stereo not drawn) | 5 | -0.56
FCCOc1ccc(-c2ccc(O[C@H]3CCOC3)cc2)nc1 | 4 | -0.48
COc1cc2c(cc1OC)[C@@H](c1c(F)cccc1Cl)N(C(=O)COCc1ccccc1)CC2 | -4 | 0.41
CCc1n[nH]c(-c2cccc(Cl)c2)c1NC(=O)OCc1ccccc1 | -6 | 0.54
CC[C@@H](C(=O)Nc1nccs1)N1CCC(n2c(=O)[nH]c3ccccc32)CC1 | -9 | 0.83
O=C(Nc1ccc(F)c(NC(=O)C2CCCCC2)c1)C1CCC1 | 1 | -0.23

SMILES | % Inhibition [%] | Z score
COc1ccc(C2=CC(c3ccc(F)cc3O)=N/C2=N\c2[nH]c(-c3ccc(F)cc3O)cc2-c2ccc(OC)cc2)cc1 | 4 | -0.56
O=C(NC1CCOC1C1CC1)c1ccc(S(=O)(=O)N2CCCCCC2)cc1 (stereo not drawn) | -17 | 3.11
COCC1(N(C)C(=O)c2cccc3[nH]c(C(F)F)nc23)CCC1 | 8 | -1.49
COC1CCN(C(=O)CN2CCCCCC2)CC1 | -16 | 1.62
Cc1cc(NC(=O)Cc2csc(NC(=O)c3ncccn3)n2)no1 | 3 | -0.29
CC(C)CC[C@@]1(C2CCNCC2)NC(=O)N(Cc2ccoc2)C1=O | -1 | 0.17
O=C(NCC1CC1)Nc1nc2ccc(Br)cn2n1 | -28 | 4.53
CCCc1cc(C(=O)NC2(CO)CN(C(=O)OC(C)(C)C)C2)no1 | -9 | 1.76
O=C(c1ccc[nH]1)N1CCN[C@H](c2cccc(Cl)c2)C1 | -16 | 1.94
COc1ncccc1CN1CCC[C@H]1C(F)(F)F | -44 | 5.15
CC(=O)N(C)c1cccc(NC2CC(C)OC2=O)c1 (stereo not drawn) | 7 | -0.99
CC(=O)c1cc(CN2CCC([C@@H](O)CCc3ccccc3)CC2)n(C)c1 | -6 | 1.05
O=C(NC1CCCC1)C12CC1CCN2S(=O)(=O)c1ccccc1 (stereo not drawn) | 9 | -1.02
CC(C)c1ccc(C(=O)N2CCC[C@@H]2CN2CCCCC2)s1 | -2 | 0.24
O=C1CC[C@H](CN2CC(c3ccccc3)(c3ccccc3)CCC2=O)N1 | -11 | 1.25
Cc1nsc(NC(=O)N(C)C2CCOCC2)n1 | -9 | 0.99
Cc1ccc(=O)n(CCc2ccc(F)c(F)c2)n1 | -11 | 1.79
Cc1c(C(=O)O)cnn1-c1nccc(-c2ccc3c(c2)OCO3)n1 | -7 | 1.24
Cc1cc(NC(=O)NCc2c(C)cc(CO)cc2C)cc(C)n1 | 5 | -0.95
COc1ccccc1-c1cc2c(=O)n(CC#N)ccn2n1 | -5 | 0.92
COc1cccc(S(=O)(=O)N(C)[C@@H](C)C(C)(C)O)c1OC | -6 | 1.01
